Columns and labels:
Assay in all cases: pull-down of 35S-labelled conditioned medium with receptor-Ig on protein A-Sepharose, SDS-PAGE
VEGFR-1-Ig = biological target: T1, VEGFR-1-Ig (human, UniProt P17948 27-758)
T1 construct: extracellular domain; Transiently expressed in 293 EBNA cells and captured on protein A-Sepharose; Construct as in Olofsson et al., 1998; also called soluble Ig-fusion protein containing the extracellular domain of human VEGFR-1; not shown: Ig part of the fusion; not described

VEGFR-2-Ig = biological target: T2, VEGFR-2-Ig (human, UniProt P35968 20-764)
T2 construct: extracellular domain; also called soluble Ig-fusion protein containing the extracellular domain of human VEGFR-2; not shown: Ig part of the fusion; not described

VEGFR-3-Ig = biological target: T3, VEGFR-3-Ig (human, UniProt P35916 25-775)
T3 construct: extracellular domain; Transiently expressed in 293 EBNA cells and captured on protein A-Sepharose; also called soluble Ig-fusion protein containing the extracellular domain of human VEGFR-3; not shown: Ig part of the fusion; not described
T3 sequence (looked up): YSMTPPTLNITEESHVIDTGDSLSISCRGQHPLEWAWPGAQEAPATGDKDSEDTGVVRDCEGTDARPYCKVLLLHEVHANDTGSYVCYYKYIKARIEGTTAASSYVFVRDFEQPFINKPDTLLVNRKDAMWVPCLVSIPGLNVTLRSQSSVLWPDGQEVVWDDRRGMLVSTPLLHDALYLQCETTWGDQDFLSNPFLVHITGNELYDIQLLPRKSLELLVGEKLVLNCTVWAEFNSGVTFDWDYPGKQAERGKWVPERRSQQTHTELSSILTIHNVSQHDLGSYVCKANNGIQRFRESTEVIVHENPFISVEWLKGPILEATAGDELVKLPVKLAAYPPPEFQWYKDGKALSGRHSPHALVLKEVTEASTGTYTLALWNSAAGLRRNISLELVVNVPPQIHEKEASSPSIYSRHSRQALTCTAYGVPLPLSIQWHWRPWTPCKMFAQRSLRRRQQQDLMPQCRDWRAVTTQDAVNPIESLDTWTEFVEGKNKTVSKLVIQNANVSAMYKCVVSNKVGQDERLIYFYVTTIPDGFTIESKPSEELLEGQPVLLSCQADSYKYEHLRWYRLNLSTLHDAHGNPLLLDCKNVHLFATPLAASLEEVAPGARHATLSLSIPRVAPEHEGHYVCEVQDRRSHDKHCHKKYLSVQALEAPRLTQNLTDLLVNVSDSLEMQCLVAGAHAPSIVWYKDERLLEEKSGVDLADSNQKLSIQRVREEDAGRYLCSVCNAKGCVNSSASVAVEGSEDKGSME

Measured: binding result

Sequence of VEGFR-2-Ig (P35968 20-764): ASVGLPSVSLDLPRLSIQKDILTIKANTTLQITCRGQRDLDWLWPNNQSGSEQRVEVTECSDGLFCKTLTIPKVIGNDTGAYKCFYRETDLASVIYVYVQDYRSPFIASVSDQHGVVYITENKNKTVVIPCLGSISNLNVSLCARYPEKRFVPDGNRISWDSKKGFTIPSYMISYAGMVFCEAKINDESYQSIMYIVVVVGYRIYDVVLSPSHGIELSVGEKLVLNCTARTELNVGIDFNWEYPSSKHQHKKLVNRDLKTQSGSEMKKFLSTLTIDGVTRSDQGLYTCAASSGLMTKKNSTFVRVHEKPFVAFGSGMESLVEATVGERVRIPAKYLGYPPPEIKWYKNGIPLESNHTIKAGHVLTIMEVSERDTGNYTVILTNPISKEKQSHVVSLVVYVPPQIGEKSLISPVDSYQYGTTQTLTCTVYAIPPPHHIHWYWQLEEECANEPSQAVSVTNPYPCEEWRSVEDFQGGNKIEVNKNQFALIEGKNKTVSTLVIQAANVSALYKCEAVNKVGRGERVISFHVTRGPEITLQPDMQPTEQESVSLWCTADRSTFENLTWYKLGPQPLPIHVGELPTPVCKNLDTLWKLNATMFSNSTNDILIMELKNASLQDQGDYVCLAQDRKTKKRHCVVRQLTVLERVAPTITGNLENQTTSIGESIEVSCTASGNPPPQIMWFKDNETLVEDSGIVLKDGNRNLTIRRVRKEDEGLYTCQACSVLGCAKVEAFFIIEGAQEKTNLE
Sequence of VEGFR-1-Ig (P17948 27-758): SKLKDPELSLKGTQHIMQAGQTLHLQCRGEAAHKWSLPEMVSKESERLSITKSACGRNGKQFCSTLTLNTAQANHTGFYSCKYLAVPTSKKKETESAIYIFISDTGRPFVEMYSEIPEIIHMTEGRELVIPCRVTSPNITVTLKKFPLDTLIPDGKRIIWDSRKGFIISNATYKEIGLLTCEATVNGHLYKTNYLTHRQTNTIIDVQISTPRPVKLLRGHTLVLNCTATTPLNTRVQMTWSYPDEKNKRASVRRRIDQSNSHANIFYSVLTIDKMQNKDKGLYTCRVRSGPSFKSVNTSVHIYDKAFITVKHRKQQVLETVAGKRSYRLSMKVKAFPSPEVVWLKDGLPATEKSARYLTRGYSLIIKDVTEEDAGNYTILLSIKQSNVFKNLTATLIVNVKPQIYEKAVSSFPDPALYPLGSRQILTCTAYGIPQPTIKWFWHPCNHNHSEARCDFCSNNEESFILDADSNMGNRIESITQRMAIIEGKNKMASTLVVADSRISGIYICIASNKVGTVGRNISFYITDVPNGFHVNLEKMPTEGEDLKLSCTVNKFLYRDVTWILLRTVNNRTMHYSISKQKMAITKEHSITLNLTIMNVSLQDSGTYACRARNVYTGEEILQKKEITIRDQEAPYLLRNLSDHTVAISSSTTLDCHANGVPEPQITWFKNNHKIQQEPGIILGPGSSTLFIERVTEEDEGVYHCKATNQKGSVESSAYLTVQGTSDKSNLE

B1: truncated PDGF-D (PDGF/VEGF homology domain expressed from pSecTag in COS cells) (ligand)
chain: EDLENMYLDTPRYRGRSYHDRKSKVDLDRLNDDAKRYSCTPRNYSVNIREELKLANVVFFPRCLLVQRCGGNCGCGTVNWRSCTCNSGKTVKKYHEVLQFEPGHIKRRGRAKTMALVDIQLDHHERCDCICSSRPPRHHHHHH
modifications: metabolically labeled with 35S-cysteine and methionine
notes: also called secreted truncated PDGF-D; radiolabeled PDGF-D; not shown: C-terminal c-myc tag derived from the pSecTag vector
no binding: all assays above

Reference: patent US20050209136A1 (LUDWIG INSTITUTE FOR CANCER RESEARCH, published 2005)
